From the supplement of paper PMC10338343
± gives the standard deviation. The full ranking holds about 3,000 sequences; the median of “pre-steady-state target cleavage rate” is about 0.0079, and the highest 2% start at about 0.2. Only a part is listed here, and it is no random draw.
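Also: 1 nM active piRISC with 0.1 nM target library at 33 °C single turnover.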

What follows are sequences tested on MILI (PIWIL2) piRISC loaded with piRNA #2 (26 nt) (assay: pre-steady-state target cleavage rate (min^-1); MIWI and MILI are mouse PIWI proteins and EfPiwi is from a freshwater sponge; tags in brackets are library labels; higher = faster piRNA-guided slicing of the target). Details: guide: piRNA #2 5'p-UUAGGUAACCCAGUAGAUCCAGAGGA; auxiliary factor: 500 nM mouse GTSF1.
Method in brief: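 The pre-steady-state cleavage rate was calculated from a burst-and-steady-state fit. Data came from Cleave-'n-Seq, in which […] transcribed, DNA-blocked target RNA library was mixed with 1 nM active affinity-purified piRISC carrying one synthetic guide, with or without 500 nM GTSF1 partner protein, in HEPES–potassium acetate buffer at 33 °C for 0–8 or 0–960 min. Uncleaved targets were sequenced and normalised to depth and to weakly complementary targets, three trials were pooled, and k3 was capped at 0.0001 min^-1.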
With CUUAAGCUCUGGAUCUACUGGGUUACGUAA the “pre-steady-state target cleavage rate” value was 0.0464 ± 0.011. With CUUAUCCUCUGGAGCUACUGGGUUACCUAA the “pre-steady-state target cleavage rate” value was 0.238 ± 0.052. In the case of CUUAAGGAGUGGAUCUACUGGGUUACCUAAA, the “pre-steady-state target cleavage rate” value is reported as 0.0485 ± 0.015. For CUUAUCCUCUGGAUCUACUGGGUUACGUAA, the “pre-steady-state target cleavage rate” value was 0.0586 ± 0.014. CUUAAGGAGAGGAUCUCCUGGGUUACCUAA was tested, and the “pre-steady-state target cleavage rate” value was 0.00487 ± 0.0048. CUUAAGGAGACCUAGUACUGGGGUACCUAA was tested, and the “pre-steady-state target cleavage rate” value was less than 0.0001. CUUAUCCUCUGGAUUUACUGGGUUACCUAA was tested, and the “pre-steady-state target cleavage rate” value was 0.149 ± 0.022. CUUAACCUCUGGAUCUACUGGGUAUGCUAA was tested, and the “pre-steady-state target cleavage rate” value was 0.0798 ± 0.024. With CUUAACCUCUCGAUCUACUGGGAUACCUAA the “pre-steady-state target cleavage rate” value was 0.0514 ± 0.011. With CUUAUCCUCUGCAUCUACUGGGUUACCUAA the “pre-steady-state target cleavage rate” value was 0.275 ± 0.056. In the case of CUUAAGCUCUAGAUCUACUGGGUUACCUAA, the “pre-steady-state target cleavage rate” value is reported as 0.0691 ± 0.012. In the case of CUUAAGCUCUGGAUCUACAGGGAUACCUAA, the “pre-steady-state target cleavage rate” value is reported as 0.0216 ± 0.0073. In the case of CUUAAGGAAUGGAUCUACUGGGUUACCUAA, the “pre-steady-state target cleavage rate” value is reported as 0.0666 ± 0.015. With CUUAUCGUCUGGAUCUACUGGGUAACCUAA the “pre-steady-state target cleavage rate” value was 0.0217 ± 0.0067. With CUUAAGCUCUGGAUCUACUAGGUUACCUAA the “pre-steady-state target cleavage rate” value was 0.0525 ± 0.016. In the case of CUUAAGGUCUGGAUCUACUGGAUUACCUAA, the “pre-steady-state target cleavage rate” value is reported as 0.00949 ± 0.0056. For CUUAAGGUCUGGAUCUCCUGGGUUACCUAA, the “pre-steady-state target cleavage rate” value was 0.0281 ± 0.013. CUUAAGGUCUCGAUGUACUGGGUUACCUAA was tested, and the “pre-steady-state target cleavage rate” value was 0.036 ± 0.015. For CUUAAGCUCUCGUUCUACUGGGUUACCUAA, the “pre-steady-state target cleavage rate” value was 0.132 ± 0.028. In the case of CUUAAGGAGAGGGAUCUACUGGGUUACCUAA, the “pre-steady-state target cleavage rate” value is reported as 0.00931 ± 0.0034. CUUAACCUCUGGAUCUACUGGGAUUACCUAA was tested, and the “pre-steady-state target cleavage rate” value was 0.0546 ± 0.018. In the case of CUUAUCCACUGGAACUACUGGGUUACCUAA, the “pre-steady-state target cleavage rate” value is reported as 0.076 ± 0.014. In the case of CUUAACCUCUGGUUCUUCUGGGUUACCUAA, the “pre-steady-state target cleavage rate” value is reported as 0.169 ± 0.046. In the case of “CUUAAGGACUGGAUCUACUGGGUUACCUAG [g2:g22:cont:t1G]”, the “pre-steady-state target cleavage rate” value is reported as 0.0474 ± 0.017. CUUAACCUCUCGAACUACUGGGUUACCUAA was tested, and the “pre-steady-state target cleavage rate” value was 0.0843 ± 0.013. With CUUAUGCUCUGGAUCUACUGGGUUUCCUAA the “pre-steady-state target cleavage rate” value was 0.161 ± 0.039. For CUUAAGGACUGGAUCUACUGGGUUGCCUAA, the “pre-steady-state target cleavage rate” value was 0.0229 ± 0.013. For CUUAACCUCUGGAUCACUGGGUUACCUAA, the “pre-steady-state target cleavage rate” value was 0.00841 ± 0.0052. For CUUAACUUCUGGAUCUACUGGGUUACCUAA, the “pre-steady-state target cleavage rate” value was 0.0906 ± 0.017. In the case of CUUAAGGAGUGGAUCUACUGCGUUACCUAA, the “pre-steady-state target cleavage rate” value is reported as 0.00578 ± 0.0042. CUUAACCUCUGGAUCAAGUGGGUUACCUAA was tested, and the “pre-steady-state target cleavage rate” value was 0.0417 ± 0.01. CUUAAGGAGACGUUCAACUGGGUUACCUAA was tested, and the “pre-steady-state target cleavage rate” value was less than 0.0001. For CUUAAGGAGUGGAUCUACAGGGUUUCCUAA, the “pre-steady-state target cleavage rate” value was 0.056 ± 0.012. CUUAACCUCAGGAACUACUGGGUUACCUAA was tested, and the “pre-steady-state target cleavage rate” value was 0.0837 ± 0.021. CUUAACCUCUCCAUCUACUGGGUUACCUAA was tested, and the “pre-steady-state target cleavage rate” value was 0.118 ± 0.021. For CUUAACCUCUGCUACUACUGGGUUACCUAA, the “pre-steady-state target cleavage rate” value was 0.0726 ± 0.016. CUUAUCCUCUGGUUCUACAGGGUUACCUAA was tested, and the “pre-steady-state target cleavage rate” value was 0.167 ± 0.031. In the case of CUUAAGGUCUGGAUCUACUGGGUUACUAA, the “pre-steady-state target cleavage rate” value is reported as 0.113 ± 0.026. For CUUAAGGAGACCUAGAUCUGGGUAACCAAA, the “pre-steady-state target cleavage rate” value was less than 0.0001. CUUAUCCACUGGAUGUACUGGGUUACCUAA was tested, and the “pre-steady-state target cleavage rate” value was 0.0889 ± 0.017. CUUAACCUCUGAGAUCUACUGGGUUACCUAA was tested, and the “pre-steady-state target cleavage rate” value was 0.143 ± 0.031. CUUAUCCUCUGGAUGUACAGGGUUACCUAA was tested, and the “pre-steady-state target cleavage rate” value was 0.135 ± 0.011. With CUUAUCCUCAGGAUCUACUGGGUUACCAAA the “pre-steady-state target cleavage rate” value was 0.051 ± 0.011. CUUAAGGUCUGGAUCUACUGGGUUAGCUAA was tested, and the “pre-steady-state target cleavage rate” value was 0.0948 ± 0.018. For CUUAACCUCUGGAACUACUGCGUUACCUAA, the “pre-steady-state target cleavage rate” value was 0.0178 ± 0.0084. For CUUAACCACUGGAUCUACUGGGUUUCCUAA, the “pre-steady-state target cleavage rate” value was 0.0636 ± 0.019.
